This passage reports activity change, negative = inhibition results from PubChem BioAssay AID1745853 (National Center for Advancing Translational Sciences (NCATS), 2022).

Common to all, as to test: Primary Screen for Target Class Profiling of Small Molecule Inhibitors of Methyltransferases
In assay [1] the target is Glycine N-methyltransferase (Homo sapiens) (UniProt Q14749). The following applies: purified enzyme, MTase-Glo SAH luminescence; measured here: GNMT inhibition; at 40 µM; stronger effect = lower value. The procedure, abridged: (§1)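 Each enzyme was assayed with SAM and its substrate. SAH formation detected by MTase-Glo luminescence; single-point 40 uM screen[…].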
The target in assay [2] is Guanidinoacetate N-methyltransferase (Homo sapiens) (UniProt Q14353). Particulars: purified enzyme, MTase-Glo SAH luminescence; measured here: GAMT inhibition; at 40 µM; stronger effect = lower value. Summed up:
as §1

The target in assay [3] is Histamine N-methyltransferase (Homo sapiens) (UniProt P50135). Particulars: purified enzyme, MTase-Glo SAH luminescence; measured here: HNMT inhibition; at 40 µM; stronger effect = lower value. Summed up:
as §1

For assay [4], the target named is Nicotinamide N-methyltransferase (Homo sapiens) (UniProt P40261). The following applies: purified enzyme, MTase-Glo SAH luminescence; measured here: NNMT inhibition; at 40 µM; stronger effect = lower value. Summed up:
as §1

In assay [5] the target is Phenylethanolamine N-methyltransferase (Homo sapiens) (UniProt P11086). The following applies: purified enzyme, MTase-Glo SAH luminescence; measured here: PNMT inhibition; at 40 µM; stronger effect = lower value. The procedure, abridged:
as §1

The other results are listed elsewhere or left out. These are further read-outs of the screen, such as a control signal, another cell line or another target. No call is given for them. Numbered stars: 1 amine (or outer) side, 2 acyl side, 3 side chain; on linkers, the order of the positions; unused ones are H or OH. Bridge positions count the residues as written; N and C are the ends. Square brackets hold non-standard residues; d marks the D form. Peptide text beside a SMILES is read from it. * marks the point of attachment. pTerphenylCO(4''-OnC5H11) = CCCCCOc1ccc(-c2ccc(-c3ccc(C(=O)*)cc3)cc2)cc1; Orn(4R-OH,5R-OH) = O=C([C@H](C[C@@H](O)[C@@H](O)N[*:3])N[*:1])[*:2]; hTyr(3S-OH,4S-OH) = N[C@H](C(=O)O)[C@H](O)[C@@H](O)c1ccc(O)cc1; Pro(3S-OH,4S-Me) = C[C@H]1CN[C@H](C(=O)O)[C@H]1O; Hyp = O=C(O)[C@@H]1C[C@@H](O)CN1
On the % scale 0 is the no-effect control and ±100 the full control effect.

With `O=c1c2cc(-c3cccs3)nn2ccn1CC(O)c1cccc(Cl)c1` (configuration not stated), the activity change, negative = inhibition was -5.99% in assay [1]; -1.19% in assay [2]; -1.55% in assay [3]; -5.15% in assay [4]; 3.28% in assay [5].

For the compound `COc1cc2c(cc1OC)C1CC(=O)C(CC(C)C)CN1CC2` (configuration not stated), the activity change, negative = inhibition was -3.31% in assay [1]; 8.33% in assay [2]; 5.06% in assay [3]; -6.42% in assay [4]; 4.18% in assay [5].

As for `CN(CCc1noc(C2CN(C(=O)CN3CCCCCC3)C2)n1)S(C)(=O)=O`, the activity change, negative = inhibition was -1.52% in assay [1]; -1.9% in assay [2]; -4.12% in assay [3]; 6.04% in assay [4]; 6.24% in assay [5].

For `Cc1cccc(-n2ncc3c2CCCC3NC(=O)CN2CCNC(=O)C2)c1C` (configuration not stated), the activity change, negative = inhibition in assay [1] was -0.49%; in assay [2], 0.891%; in assay [3], -1.14%; in assay [4], -18.3%; in assay [5], 10.3%.

Regarding `Cc1nc(C2(C)CCN(C(=O)c3ccc(Cc4c(C)noc4C)o3)CC2)no1`, the activity change, negative = inhibition in assay [1] is -2.59%; in assay [2], 2.2%; in assay [3] it was 2.63%; in assay [4], 0.794%; in assay [5] it was -1.93%.

Regarding `Cc1cccc(CNC(=O)C2(C)Cn3cnc(C(=O)NC4CCCC4)c3C(=O)N2C2CC2)c1` (configuration not stated), the activity change, negative = inhibition in assay [1] was 5.38%; in assay [2] it was 1.88%; in assay [3] it was 12.8%; in assay [4] it was 6.01%; in assay [5], 16.7%.

For `COCCCNC(=O)C1(C)Cn2nc(-c3ccccc3)cc2C(=O)N1Cc1cccc(C)c1` (configuration not stated), the activity change, negative = inhibition in assay [1] was 0.367%; in assay [2], 3.13%; in assay [3] it was 3.04%; in assay [4], 0.741%; in assay [5], -5.88%.

On to `Cc1nc(C2CC(O)C2)cc(N2CCN(C(=O)c3cccs3)CC2)n1` (configuration not stated), for which the activity change, negative = inhibition was -3.55% in assay [1]; 1.47% in assay [2]; -1.53% in assay [3]; -3.17% in assay [4]; 1.26% in assay [5].

With `CCCCCOc1ccc(-c2ccc(-c3ccc(C(=O)N[C@H]4C[C@@H](O)[C@@H](O)NC(=O)[C@@H]5[C@@H](O)[C@@H](C)CN5C(=O)[C@H]([C@@H](C)O)NC(=O)[C@H]([C@H](O)[C@@H](O)c5ccc(O)cc5)NC(=O)[C@@H]5C[C@@H](O)CN5C(=O)[C@H]([C@@H](C)O)NC4=O)cc3)cc2)cc1` ({pTerphenylCO(4''-OnC5H11)}-[Orn(4R-OH,5R-OH)]T[Hyp][hTyr(3S-OH,4S-OH)]T[Pro(3S-OH,4S-Me)]; lactam 1-C), the activity change, negative = inhibition in assay [1] is -2.3%; in assay [2], 14.5%; in assay [3], 6.32%; in assay [4], -5.36%; in assay [5] it was 4.44%.

As for `COC[C@@]12CC[C@@H](N3CCOCC3)C[C@H]1CCN(c1nccc(N)n1)C2`, the activity change, negative = inhibition in assay [1] was -3.65%; in assay [2], -6.67%; in assay [3] it was -3.15%; in assay [4], -11.8%; in assay [5], -8.68%.

Turning to `CCCn1c(=O)c2ccc(C(=O)NC(C)C)cc2n2c(SCC(=O)Nc3cccc(Cl)c3)nnc12`, the activity change, negative = inhibition in assay [1] was -2%; in assay [2], 2.92%; in assay [3], 2.68%; in assay [4], 0.243%; in assay [5], 0.308%.

As for `CC(C)c1nc(N(C)S(C)(=O)=O)nc(-c2ccc(F)cc2)c1/C=C/[C@@H](O)C[C@@H](O)CC(=O)O`, the figures for the activity change, negative = inhibition in assay [1] and in assay [3] were -7.78% and 12%, respectively.

Regarding `C/C=C(\C)C(=O)O[C@H]1C=C(CO)C(=O)[C@H](OC(C)=O)[C@H]1C(C)C`, the activity change, negative = inhibition is -3.45% in assay [1]; -0.418% in assay [2]; 0.332% in assay [3]; -15.9% in assay [4]; -8.26% in assay [5].

On to `CC1(C(=O)NC2CCCC2)Cn2c(cc3sccc32)C(=O)N1C1CCCCCC1` (configuration not stated), for which the activity change, negative = inhibition in assay [1] is 1.46%; in assay [2], 11.8%; in assay [3], 5.84%; in assay [4], 3.82%; in assay [5], -0.586%.

With `COc1ccc2c(c1)c(-n1cccc1)c1n2CC(C)(C(=O)NC2CCCCC2)N(Cc2ccc(Cl)cc2)C1=O` (configuration not stated), the activity change, negative = inhibition in assay [1] was -5.85%; in assay [2] it was 0%; in assay [3], 2.73%; in assay [4], -1.68%; in assay [5], -1.29%.

On to `CC[C@H]1CN(C(=O)NC(C)C)CC[C@H]1CC(=O)N1CCC(C(=O)OC)CC1`, for which the activity change, negative = inhibition in assay [1] was -3.81%; in assay [2], -4.17%; in assay [3], -2.13%; in assay [4], -5.08%; in assay [5] it was -2.48%.

`CCC(C)NC(=O)c1ccc2c(=O)n(Cc3ccccc3)c3nn(CC(=O)NC(C)C)c(=O)n3c2c1` (configuration not stated): the activity change, negative = inhibition stood at 3.36% in assay [1]; 0% in assay [2]; 3.17% in assay [3]; 1.43% in assay [4]; 2.51% in assay [5].

Consider `Cn1c(=O)c2ccc(C(=O)NC3CCCC3)cc2n2c(=O)n(CC(=O)NC3CCCC3)nc12`, for which the activity change, negative = inhibition is 3.93% in assay [1]; 0.981% in assay [2]; 0.664% in assay [3]; 3.37% in assay [4]; 4.32% in assay [5].

Take `CC(C)CCNC(=O)CCc1nnc2n(Cc3ccccc3Cl)c(=O)c3ccccc3n12`: the activity change, negative = inhibition is -7.62% in assay [1]; 0.296% in assay [2]; -1.48% in assay [3]; -5.76% in assay [4]; -4.25% in assay [5].

Turning to `COc1cc2c(Oc3ccc(-c4cnc(Nc5ccc(F)cc5)n(C)c4=O)cc3F)ccnc2cc1OCCCN1CCOCC1`, the activity change, negative = inhibition in assay [1] is 3.22%; in assay [2] it was 16.5%; in assay [3], 11.4%; in assay [4], -6.1%; in assay [5], 6.96%.

For the compound `Cc1nc2ccccc2n1CCNC(=O)CC[C@H]1NC(=O)c2ccccc2NC1=O`, the activity change, negative = inhibition in assay [1] is -5.93%; in assay [2], -9.12%; in assay [3] it was -3.03%; in assay [4], -13.8%; in assay [5] it was 5.77%.
